In article PMC12136788:
The list shows a part of the results.

B1: 152858176_152858296_649_CDS_ENSMUSG00000042631_ENSMUST00000037235|mouse|control|control (ssRNA)
RNA: GGGAGUUCUACAGUCCGACGAUCCUGCAGUAGCCAGACGCAGAGGCGGCAGCAGCGGCGGCGGUAGGUGCCGGCCGAGGAUGGUGCGGGCCGGGGGACCAGCUCCGCGCUACCUUCUUUGGUCCGGAAGGCGACAGCACUGUCCAACAGAGGAUUGAGCAUCA
B2: chr5:71493198:71493199:+_ENSG00000131711_ENST00000296755|hu_hu|FALSE|FALSE (ssRNA)
RNA: GGGAGUUCUACAGUCCGACGAUCUGCUGGUGGUUUUUCAAUGACUUCUGUAGGGAGAUGACUGGAUUUCUCGUCAGUAGGAGAUUGAUAGUAAGGUGUGUGACCAGCACUGCCAGUCACGGACUGAGAUGGUGACACCACUUCCAACAGAGGAUUGAGCAUCA
B3: chr2:168009416:168009417:-_ENSMUSG00000051149_ENSMUST00000088001|perfect_dup|motif|central (ssRNA)
RNA: GGGAGUUCUACAGUCCGACGAUCCAUAUGGUUGAGUAGGGUAUCUGUAGGCAAAUAGCGAUUACAGUAGAGGCAUUUGCGGGUAAAAUUGUGUAUUUUCAUAAUGUAGUUAGCUACGGCUGGGACUUUCUCAGCUUUAUGCUCCAACAGAGGAUUGAGCAUCA
B4: 120674884_120675087_4202_CDS_ENSMUSG00000025153_ENSMUST00000055655|mouse|control|control (ssRNA)
RNA: GGGAGUUCUACAGUCCGACGAUCCUGGCUUAGGAGGCUGGGCGCAGGCUGCACCUCAGAGGGUAGGCAGGCCAGGGUCUCCCCAAGGGCAUGUCCUUUGAGCACUGUGUGCACUAGCAGGAAACCACCUUCCUUGAGGGCAGCCAACAGAGGAUUGAGCAUCA
B5: chr17:1257564:1257565:-_ENSG00000108953_ENST00000571732|hu_hu|FALSE|FALSE (ssRNA)
RNA: GGGAGUUCUACAGUCCGACGAUCACCCUGCAUGUCUGAAGUCCAUAGUGUCAGAUUAUCACGUAACAACUGCAUGAUAAGUGUAGAGUCCUUAUAGCUUUCUUCACUCAGCGUAUCCAGUUCUGCAAUUGCAUCAUCAAAAGCCAACAGAGGAUUGAGCAUCA
B6: 116602748_116602868_974_CDS_ENSG00000151553_ENST00000369248|human|control|control (ssRNA)
RNA: GGGAGUUCUACAGUCCGACGAUCAUCCAUCUGAUGAGGAGGCUCAUCUUCCAAUUCUGUUUGCUCCAUUCCAGUAGCACCAGAUAGUUCCUCUGGUUGACGGGACUGUCCUGUAUCUGUUGACAAGGAAUCCUGACCUUUUAACAACAGAGGAUUGAGCAUCA

The binders below were run against T1, UNK ZnF1-3 (human, UniProt Q9C0B0 31-174) (assay: nsRBNS (natural sequence RNA bind-n-seq); RBNS binding buffer (assumed for nsRBNS): 25 mM Tris pH 7.5, 150 mM KCl, 3 mM MgCl2, 0.01% Triton X-100, 500 ug/ml BSA, 20 U/ml SUPERase-In, 4 C; UNK is unkempt and MSI1 is Musashi-1; names of the RNAs are library labels; protein concentration not given here; high values mean tight binding).
T1 sequence: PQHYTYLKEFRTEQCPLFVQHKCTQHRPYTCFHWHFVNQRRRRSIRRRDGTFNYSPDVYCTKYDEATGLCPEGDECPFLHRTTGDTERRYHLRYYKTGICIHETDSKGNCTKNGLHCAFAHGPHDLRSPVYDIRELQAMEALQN
With B1 the binding signal was 0.836 enrichment R.
B2 gave a binding signal of 0.814 enrichment R.
B3 showed a binding signal of 2.18 enrichment R.
B4 showed a binding signal of 0.714 enrichment R.
In the case of B5, the binding signal is reported as 0.954 enrichment R.
Work on B6 yielded a binding signal of 0.576 enrichment R.
